In the RNAGym collection of RNA variant scans (doi:10.7554/elife.90254):
Read counts are not given, so values of variants with three or more changes are uncertain.

B1: LINE1-full (parent)
chain: UACGUAGGUGGUUUUCCCCUGAUAGUGCUAAGGGGGCCUGGAAGUUUGGACUGGGCAGAGCUCAACACAGCGUGGCAAAGUGGCUGUGGCUAGACUGCCUCUCUGGAUUCCUCGUCACUCAGCAGGGCAUCUCUGAGAGAAAUGCC

Variants of: B1
Assay: self-cleavage, relative activity (ratio to wild type); higher = more cleavage; in vitro, sequencing; the parent is a self-cleaving ribozyme

Row | Variant | self-cleavage
1 | UACGUAGGUGGUUUUCCCCUGAUAGUGCUAAGGGGGCCUGGAAGUUUGGACUGGGCAGAGCUCAACACAGCGCGGCAAGGUGGCUGUGGCUAGACAGCCUCUCUGGAUUCCUCGUCACUCAGCAGGGCAUCUCUGAGAGAAAUGCC [U73C A79G U96A] | 0
2 | UACGUAGGUGGUUUUCCCCUGAUAGUGCUAAGGGGGCCUGGAAGUUUGGACUGGGCAGAGCUCAACACAGCGAGGCAAAGUGGCUGCGGCUAGACUGCCCCUCUGGAUUCCUCGUCACUCAGCAGGGCAUCUCUGAGAGAAAUGCC [U73A U87C U100C] | 0.72
3 | UACGUAGGUGGUUUUCCCCUGAUAGUGCUAAGGGGGCCUGGAAGUUUGGACUGGGCAGAGCUCAACACAGCGCGGCAAAGUGGCUGUGGCUAGACUGCCUCUCUGGAUUCCUCGUCACUCGGCAGGGCAUCUCUGAGAGUAAUGCC [U73C A121G A140U] | 1.53
4 | UACGUAGGUGGUUUUCCCCUGAUAGUGCUAAGGGGGCCUGGAAGUUUGGACUGGGCAGAGCUCAACACAGCGAGGCAAAGUGGCUGUGGCUAGACUGCCUCCCUGGACUCCUCGACACUCAGCAGGGCAACUCUGAGAGAAAUGCC [U73A U102C U108C U115A U130A] | 1.38
5 | UACGUAGGUGGUUUUCCCCUGAUAGUGCUAAGGGGGCCUGGAAGUUUGGACUGGGCAGAGCUCAACACAGCGAGGCAAAGUGGUUGUGGCUAGACUGCCUCUCUGGACUCCUCGUCACUCAGCAGGGCAUCUCUGAGAGAAAUGCC [U73A C84U U108C] | 0.21
6 | UACGUAGGUGGUUUUCCCCUGAUAGUGCUAAGGGGGCCUGGAAGUUUGGACUGGGCAGAGCUCAACACAGCGCGGCAAGGUGGCUGUGGCUAGACUGCCUCUCAGGAUUCCUCGUCACUCAGCAGGGCAUCUCUGAGAGAAAUGCC [U73C A79G U104A] | 0.74
7 | UACGUAGGUGGUUUUCCCCUGAUAGUGCUAAGGGGGCCUGGAAGUUUGGACUGGGCAGAGCUCAACACAGCGCGGCAAGGUGGCUGUGGCUAGACUGUCUCUCUGGACUCCUCGUCACUCAGCAGGGCAUCUCUGAGAGAAAUGCC [U73C A79G C98U U108C] | 0.56
8 | UACGUAGGUGGUUUUCCCCUGAUAGUGCUAAGGGGGCCUGGAAGUUUGGACUGGGCAGAGCUCAACACAGCGAGGCAAAGUGGCUGUGGCUAGACUGCCUCUCUGGAUUCCUCGUCACUCAGCAGGGCUUCUCUGAGGGAAAUGCC [U73A A129U A138G] | 2.12
9 | UACGUAGGUGGUUUUCCCCUGAUAGUGCUAAGGGGGCCUGGAAGUUUGGACUGGGCAGAGCUCAACACAGCGCGGCAGAUUGGCUGUGGCUAAACUGCCUCUCUGGAUUCCUCGUCACUCAGCAGGGCAUCUCUGAGAGAGAUGCC [U73C A78G G80U G93A A141G] | 0.08
10 | UACGUAGGUGGUUUUCCCCUGAUAGUGCUAAGGGGGCCUGGAAGUUUGGACUGGGCAGAGCUCAACACAGCGAGGCAAAGUGGCCGUGGCUAGACUGCCUCUCUGGAUUCCUCGUCACUCAGCAGGGCAUCUCUGAGAGGAAUGCC [U73A U85C A140G] | 0.09
11 | UACGUAGGUGGUUUUCCCCUGAUAGUGCUAAGGGGGCCUGGAAGUUUGGACUGGGCAGAGCUCAACACAGCGAGGCAAAGUGGCUGUGGCUAGACUGCCUCUCUGGAUUCCUCGUUACCCAGCAGGGCAUCUCUGAGAGAAAUGCC [U73A C116U U119C] | 1.51
12 | UACGUAGGUGGUUUUCCCCUGAUAGUGCUAAGGGGGCCUGGAAGUUUGGACUGGGCAGAGCUCAACACAGCUUGGCAAAGUGGCUGUGGCUAGACAGCCUCUCUGGAUUACUCGUCACUCAGCAGGGCAUCUCUGAGAGAAAUGCC [G72U U96A C110A] | 0.05
13 | UACGUAGGUGGUUUUCCCCUGAUAGUGCUAAGGGGGCCUGGAAGUUUGGACUGGGCAGAGCUCAACACAGCGAGGCAAAGUGGCCGUGGCUAGACUGCCCCUCCGGAUUCCUCGUCACUCAGCAGGGUAUCCCUGAGAGAAAUGCC [U73A U85C U100C U104C C128U U132C] | 0.58
14 | UACGUAGGUGGUUUUCCCCUGAUAGUGCUAAGGGGGCCUGGAAGUUUGGACUGGGCAGAGCUCAACACAGCGCGGCAGAGUGGCUGUGGCUAGACUGCCUCUCUGGGUUCCUCGUCACUCAGCAGGGCAUCUCUGAGAGAAAUGCC [U73C A78G A107G] | 0
15 | UACGUAGGUGGUUUUCCCCUGAUAGUGCUAAGGGGGCCUGGAAGUUUGGACUGGGCAGAGCUCAACACAGCGCGGCAAAGUGGCUGUGGCUAGGCUGCCUCUCUGGAUUCCUCGUCACUCAGCAGGGCAUCUCUGGGAGAAAUGCC [U73C A94G A136G] | 0
16 | UACGUAGGUGGUUUUCCCCUGAUAGUGCUAAGGGGGCCUGGAAGUUUGGACUGGGCAGAGCUCAACACAGCGCGGCAGAGUGGCUGUGGCUAGACCGCCUCUCUGGAUUCCUCGUCACUCAGCAGGGCAUCUCUGGGAGAAAUGCC [U73C A78G U96C A136G] | 0
17 | UACGUAGGUGGUUUUCCCCUGAUAGUGCUAAGGGGGCCUGGAAGUUUGGACUGGGCAGAGCUCAACACAGCGCGGCGAAGUGGCUGUGGCUAGACAGCCUCUCUGGACUCCUCGUCACUCAGCAGGGCAUCUCUGAGAGAAAUGCC [U73C A77G U96A U108C] | 0
18 | UACGUAGGUGGUUUUCCCCUGAUAGUGCUAAGGGGGCCUGGAAGUUUGGACUGGGCAGAGCUCAACACAGCGAGGCAAAGAGGCUGUGGCUAGACCGCCUCUCUGGAUUCCUCGUCACUCAGCAGGGCAUCUCUGAGAGAAAUGCC [U73A U81A U96C] | 0.12
19 | UACGUAGGUGGUUUUCCCCUGAUAGUGCUAAGGGGGCCUGGAAGUUUGGACUGGGCAGAGCUCAACACAGCGAGGCAAAGUGGCUGUGGCAAGACUGCCUCUCUGGAUUCCUCGUCACUCAGCAGGGCACCUCUGAGAGAAAUGCC [U73A U91A U130C] | 0.7
20 | UACGUAGGUGGUUUUCCCCUGAUAGUGCUAAGGGGGCCUGGAAGUUUGGACUGGGCAGAGCUCAACACAGCGCGGCGAAGUGGCUGUGGCUAGACCGCCUCUCUGGAUUCCUCGUCACUCAGCAGGGCAUCUCUGAGAGAAAUGCC [U73C A77G U96C] | 0

Row | Variant | self-cleavage
21 | UACGUAGGUGGUUUUCCCCUGAUAGUGCUAAGGGGGCCUGGAAGUUUGGACUGGGCAGAGCUCAACACAGCGAGGCAAAGUGGCUGUGGCUAGACUGCCUCUCUGGAUCCCUCGCCACUCAGCUGGGCAUCUCUGAGAGAAAUGCC [U73A U109C U115C A124U] | 1.15
22 | UACGUAGGUGGUUUUCCCCUGAUAGUGCUAAGGGGGCCUGGAAGUUUGGACUGGGCAGAGCUCAACACAGCGAGGCAAAGUGGCAGUGGCUAGACUGCCUCUCUGGACUCCUCGUCACUCAGCAGGGCAUCUCUGAGAGAAAUGCC [U73A U85A U108C] | 0.07
23 | UACGUAGGUGGUUUUCCCCUGAUAGUGCUAAGGGGGCCUGGAAGUUUGGACUGGGCAGAGCUCAACACAGCGCGGCAAAGUGGCUGUGGCUAGACUGCCUCUCUGGAUUCCUCGUCACUCUGCAGGGCAUCUCUGAGAGGAAUGCC [U73C A121U A140G] | 1.84
24 | UACGUAGGUGGUUUUCCCCUGAUAGUGCUAAGGGGGCCUGGAAGUUUGGACUGGGCAGAGCUCAACACAGCGCGGCAGAGUGGCUGUGGCUAGACUGCCUCUCAGGAUUCCUCGUCACUCAGCAGGGCAUCUCCGAGAGAAAUGCC [U73C A78G U104A U134C] | 1
25 | UACGUAGGUGGUUUUCCCCUGAUAGUGCUAAGGGGGCCUGGAAGUUUGGACUGGGCAGAGCUCAACACAGCGAGGUAAAGUGGCUGUGGCUAGACUGCCUCUCUGGACUCCUCGUCACUCAGCAGGGCAUCUCUGAGAGAAAUGCC [U73A C76U U108C] | 2.64
26 | UACGUAGGUGGUUUUCCCCUGAUAGUGCUAAGGGGGCCUGGAAGUUUGGACUGGGCAGAGCUCAACACAGCGAGGCAAAGUGGCUGUGGCUAGGCUGCCUCUCUGGAUUCCUCGCCACUCAGCAGGGCAUCUCUGAGAGAAAUGCC [U73A A94G U115C] | 0.52
27 | UACGUAGGUGGUUUUCCCCUGAUAGUGCUAAGGGGGCCUGGAAGUUUGGACUGGGCAGAGCUCAACACAGCGCGGCAGAGUGGCUGUGGCUAGACUGCUUCUCUGGAUUCCUCGUCACUCAGCAGGGCAUCUCUGAGAGAAAUGCC [U73C A78G C99U] | 0.55
28 | UACGUAGGUGGUUUUCCCCUGAUAGUGCUAAGGGGGCCUGGAAGUUUGGACUGGGCAGAGCUCAACACAGCGAGGCAAAGUGGCUGUGGCUAGACUGCCUCCCUGGAUUCCUCGUCACUCUGCAGGGCAUCUCUGAGAGAAAUGCC [U73A U102C A121U] | 1.73
29 | UACGUAGGUGGUUUUCCCCUGAUAGUGCUAAGGGGGCCUGGAAGUUUGGACUGGGCAGAGCUCAACACAGCGAGGCAAAGUGGCUGUGGCUAGACUGCCUCUCUGGAUUCCUCGUCGCUCAGCUGGGCAUCUCUGAGAGAAAUGCC [U73A A117G A124U] | 1.14
30 | UACGUAGGUGGUUUUCCCCUGAUAGUGCUAAGGGGGCCUGGAAGUUUGGACUGGGCAGAGCUCAACACAGCGAGGCAAAGUGGCUGUGGCUAGACUGCCUCUCUGGAUUCCUCGUCUCUCAGCAGGGCAUCUCUGAGAGAAGUGCC [U73A A117U A142G] | 1.62
31 | UACGUAGGUGGUUUUCCCCUGAUAGUGCUAAGGGGGCCUGGAAGUUUGGACUGGGCAGAGCUCAACACAGCGCGGCAAAGUGGCUGUGGCUAGGCUGCCUCUCUGGAUUCCUCGUCACUCAGCAGGGCAUCUCUGAGAGAGAUGCC [U73C A94G A141G] | 0
32 | UACGUAGGUGGUUUUCCCCUGAUAGUGCUAAGGGGGCCUGGAAGUUUGGACUGGGCAGAGCUCAACACAGCGAGGCAAAGUGGCUGUGGCUAGACUGCCCCUCUGGCUUCCUCGUCACUCAGCAGGGCAUCUCUGAGAGAAAUGCC [U73A U100C A107C] | 0
33 | UACGUAGGUGGUUUUCCCCUGAUAGUGCUAAGGGGGCCUGGAAGUUUGGACUGGGCAGAGCUCAACACAGCGCGGCGAAGUGGCUGAGGCUAGACUGCCUCUCUGGAUUCCUCGUCACUCAGCAGGGCAUCUCUGAGAGAAAUGCC [U73C A77G U87A] | 0.19
34 | UACGUAGGUGGUUUUCCCCUGAUAGUGCUAAGGGGGCCUGGAAGUUUGGACUGGGCAGAGCUCAACACAGCGAGGCAAAGUGGCUGUGGCUAGACCGCCUCUCUGGUUUCCACGUCACUCAGCAGGGCAUCUCUGAGAGAAAUGCC [U73A U96C A107U U112A] | 0.14
35 | UACGUAGGUGGUUUUCCCCUGAUAGUGCUAAGGGGGCCUGGAAGUUUGGACUGGGCAGAGCUCAACACAGCGAGGCAAAGUGGCUGUGGCUAGACUGCCUCUCUGGACUCCUCGUCACUCAGCAGGGCAUCUACGAGAGAAAUGCC [U73A U108C C133A U134C] | 2.47
36 | UACGUAGGUGGUUUUCCCCUGAUAGUGCUAAGGGGGCCUGGAAGUUUGGACUGGGCAGAGCUCAACACAGCUUGGCAAAGUGGCUGUGGCUAGACUGCCUCUCUGGAUUCCCCGUCACUCAGCAGGGCAUCUCUGAGAGAGAUGCC [G72U U112C A141G] | 2.72
37 | UACGUAGGUGGUUUUCCCCUGAUAGUGCUAAGGGGGCCUGGAAGUUUGGACUGGGCAGAGCUCAACACAGCGAGGCAAAGUGGCUGUGGCUAGACUGCCUCUCUGGAUUCCUCGUCACACAGCAGGGCGUCUCUGAGAGAAAUGCC [U73A U119A A129G] | 2.22
38 | UACGUAGGUGGUUUUCCCCUGAUAGUGCUAAGGGGGCCUGGAAGUUUGGACUGGGCAGAGCUCAACACAGCGAGGCAAAGCGGCUGUGGCUAGACUGCCUCUCUGGAUUCCUCGUCACUCAGCUGGGCAUCUCUGAGAGAAAUGUC [U73A U81C A124U C145U] | 2.08
39 | UACGUAGGUGGUUUUCCCCUGAUAGUGCUAAGGGGGCCUGGAAGUUUGGACUGGGCAGAGCUCAACACAGCGAGGCAAAGUGGCUGUGGCUAGACUGCCUCUCUGGAUUCCUCGUCACUCAGCAGGGCGUCCCUGAGAGAAAUGCC [U73A A129G U132C] | 1.3
